Assay results from PubChem BioAssay AID1508624 (National Center for Advancing Translational Sciences (NCATS), 2021).
The campaign covered roughly 48,000 compounds. About 120 (0.25%) were called active. About 4% were inconclusive and are not listed. Calls come from the whole dose curve; as a rule, active = well fitted activation curve with a large enough effect; inconclusive = small, poorly fitted or top-dose-only effect, or another doubt; inactive = no such curve, though single readings can be large or run the other way. This is one part of the list.

Experiment: Primary qHTS for Identification of Small Molecule Activators of Huntingtin-Antisense Promoter Activity; note: nearly all actives have a fitted effect of over 55% in size
Settings: HEK293 HTT-AS promoter firefly luciferase reporter, 24 h; series mostly up to 57.5 µM; activity change, positive = activation: at the top concentration
How it was run: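 HEK293 Fluc reporter, 2,500 cells/well, 24 h pre-culture; cpds up to 57.5 uM final, 24 h 37 degrees C; Dual-Glo, 10 min RT; normalized vehicle = 0%, zero RLU = -100%.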

Activity change, positive = activation, inactive:
COc1ccc(N2CCN(C(=O)CSc3c4c(nc5ccc(Cl)cc35)CCCC4)CC2)cc1 -24.4%
Cc1ccccc1CNc1nc(N(C)C)nc2c1cnn2C -21.2%
Cc1ccc(NC(=O)C2CCN(S(=O)(=O)c3ccc4[nH]c(=O)ccc4c3)CC2)cc1C -9.62%
CCc1cccc(CC)c1NC(=O)Cn1c(=O)c(-c2cc(C)ccc2NC(C)=O)nc2ccccc21 -11.9%
CCOc1ccc(CCNC(=O)Cn2c(-c3cccs3)cc3cc(F)ccc32)cc1OCC -39.7%
CCCc1cc(N2CCN(c3ccccc3)CC2)n2cnnc2n1 -21.7%
CCc1ccc(CN(Cc2ccco2)c2cnc(S(C)(=O)=O)nc2C(=O)Nc2c(C)cccc2C)cc1 -28.8%
Cn1c(=NC(=O)c2ccc(S(=O)(=O)N3CCCC3)cc2)sc2cc(F)ccc21 -0.141%
CCc1ccccc1NCc1nnc2n1CCCCC2 -1.16%
O=C1COc2cc(S(=O)(=O)CCC(=O)N3CCN(c4ccccc4F)CC3)c(Cl)cc2N1 -19.4%
O=C(Cn1c(-c2cccs2)cc2ccccc21)N1CCN(c2ccccc2F)CC1 -27.8%
COc1ccc(NC(=O)CSC2=Nc3ccccc3C3=NC(CC(=O)NCc4ccco4)C(=O)N23)cc1 (stereo not given) -16.5%
O=C(CSc1nnc(-c2ccncc2)n1-c1ccccc1)Nc1ccc(Cl)c(Cl)c1 -31.4%
CCN(C(=O)CSc1nnc(-c2cc(OC)c(OC)c(OC)c2)o1)c1ccccc1 -27.4%
Clc1ccc(CCNc2nc3ccccc3c3nc(-c4ccccc4)nn23)cc1 -8.72%
Cc1ccc(C(=O)N(Cc2ccco2)Cc2ccco2)cc1 -0.0852%
CCOc1cc(CNC(=O)c2ccccc2NC(=O)c2nsc3ccccc23)ccc1OC 16.7%
CCOc1ccc(NC(=O)Cn2cc(C(=O)c3cccs3)c3ccccc32)cc1 -17.6%
CCOc1cccc(CC(=O)NCc2ccc3c(c2)CCN3C(=O)c2ccc(F)cc2)c1OCC -0.843%
CC1(C)S[C@@H]2[C@H](NC(=O)C(C(=O)O)c3ccccc3)C(=O)N2[C@H]1C(=O)O (stereo not given in full) 3.33%
CCOC(=O)OCC/C(SC(=O)OCC)=C(\C)N(C=O)Cc1cnc(C)nc1N -6.7%
COc1cccc(CCNC(=O)c2cnc3sc(N4CCCCCC4)nn3c2=O)c1 -5.91%
O=C(Nc1ccc2oc(-c3cccnc3)nc2c1)c1ccc(-c2cccc(Cl)c2)o1 -33.1%
COc1ccc(S(=O)(=O)c2c(Nc3c(C)cccc3C)sc(C(=O)c3ccc4c(c3)OCO4)c2N)cc1 -42.8%
Cc1ccc(-n2nc3c(=O)n(CC(=O)NC(C)C)nc(C)c3c2C)cc1 -10.4%
CCC(CC)C(=O)Nc1ccc2nc(SCc3ccccc3)sc2c1 -16.3%
CS(=O)(=O)c1ncc(Cl)c(C(=O)Nc2c(C(=O)Nc3ccccc3)oc3ccccc23)n1 -3.55%
Cc1cccc(Nc2ncc(NC(=O)c3cccc(F)c3)c(Nc3cccc(C)c3)n2)c1 -28.9%
NCCc1nnc(SCc2ccc(Cl)cc2)o1 -7.29%
COc1ccccc1C(=O)Nc1nc2ccc(S(=O)(=O)N3CCCC3)cc2s1 3.94%
CCN(CC)C(=S)SSC(=S)N(CC)CC
Clc1ccc(CCNc2ncnc3c2c(-c2ccccc2)cn3-c2ccccc2)cc1 -13.1%
COc1ccc(C(=O)CN2C(=O)N(c3cc(C)cc(C)c3)S(=O)(=O)c3ccccc32)cc1 -21.4%
Cc1cc(OCCCS(C)(=O)=O)cc(C)c1-c1cccc(COc2ccc3c(c2)OC[C@H]3CC(=O)O)c1 -27.9%
COc1ccccc1CNC(=O)Cn1ncc2c(=O)oc3ccc(C)cc3c21 -1.55%
Cc1ccc(Nc2c(-c3ccc(C)cc3)nc3cnccn23)cc1 -22.1%
Cc1ccccc1CS(=O)(=O)Cc1ccc(C(=O)NCCc2ccccc2)o1 -10.8%
CCOC(=O)c1ccc(Nc2c(-c3ccc(O)cc3)nc3nc[nH]n23)cc1 -26.6%
COc1cc(C(=O)Nc2cc(C)ccc2OCc2cc(=O)n3cc(C)sc3n2)cc(OC)c1OC -13%
COc1cccc(-c2nc3c(c(SCc4ccccc4)n2)Cc2c(CO)cnc(C)c2O3)c1 -1.12%
CN(C)CC=CC(=O)Nc1cc2c(Nc3ccc(F)c(Cl)c3)ncnc2cc1O[C@H]1CCOC1 -45.2%
NC(=O)c1cc(S(=O)(=O)NCc2ccccc2)cs1 -22.1%
CCCn1c(=O)n(-c2ccccc2)c(=O)c2sc3ccccc3c21 -11.1%
COc1cc(CCc2cc(NC(=O)c3ccc(N4C[C@@H](C)N[C@@H](C)C4)cc3)n[nH]2)cc(OC)c1 -21.6%
CN(C(=O)CCNC(=O)Cn1cnc2ccccc2c1=O)c1ccccc1F -11.8%
C=CCc1c(C)nc2nc(SCC(=O)Nc3ccccc3CC)nn2c1C 3.15%
CCOc1ccc(CCNC(=O)CN2CCN(Cc3ccc(F)cc3Cl)C2=O)cc1OCC -18.4%
CCCOc1ccccc1C(=O)N1CCC(c2nc3ccccc3s2)CC1 1.99% [at 11.5 µM, percent change from vehicle, -100% = no light]
CCOC(=O)CSc1nc2cc3c(cc2c(=O)n1CCCC(=O)NCc1ccc2c(c1)OCO2)OCO3 -9%
CC(C)Cc1nn2c(=O)cc(COC(=O)c3cccc(NC(=O)CCc4ccccc4)c3)nc2s1 5.53%
C=Cc1ccc(CSc2nc(-c3ccc(OC)cc3)nc3c2Cc2c(CO)cnc(C)c2O3)cc1 -11.3%
CCOC(=O)c1c(C)c(C(=O)NCCc2ccc(OC)cc2)c(C)n1C -5.35%
CCc1nn(CC(=O)Nc2cccc(C)c2C)c(=O)c2cc3sccc3n12 -11.6%
Cc1ccc(CCNC(=O)C2CCCN(Cc3nc(-c4cccc(Cl)c4)oc3C)C2)cc1 (stereo not given) -64.5%
CN(C(=O)CSc1cn(CC(=O)N2CCCCC2)c2ccccc12)c1ccccc1 -5.27%
COc1ccc(-c2noc(C3CC(=O)N(c4cc(C)cc(C)c4)C3)n2)cc1 (stereo not given) 0.69%
COc1ccc(/C=C/c2nc(C#N)c(N3CCN(c4ccccc4)CC3)o2)cc1OC -13%
O=C(Cc1ccc(F)cc1)N1CCC(c2nc3c(nnn3Cc3ccc(Cl)cc3)c(=O)[nH]2)CC1 -28.4%
Cc1ccc2nc(-c3ccccn3)c(Nc3ccc(F)cc3)n2c1 -53%
CCC(C)NC(=O)c1ccc2c(c1)N(Cc1ccccc1)C(=O)c1ccccc1S2(=O)=O (stereo not given) -15.4%
CCC(Oc1ccccc1)C(=O)Nc1ccccc1OCc1cc(=O)n2ccccc2n1 (stereo not given) 2.7%
CC1=C(C(=O)Nc2ccc(Cl)cc2)C(C(C)C)n2nc(SCc3cccc(C)c3)nc2N1 (stereo not given) 7.97%
CCOC(=O)C1CCCN(c2ncnc3c2cnn3-c2ccc(C)c(Cl)c2)C1 (stereo not given) -11.7%
Cn1c(=O)c2c(SCC(=O)NCc3ccco3)nc(-c3ccccc3Cl)nc2n(C)c1=O -10.7%
Cc1ccc(NC(=O)CSc2nc3c(c(=O)[nH]2)CN(Cc2ccc4c(c2)OCO4)CC3)cc1C 17.4%
CC(C)c1ccc(CNCCSc2nnnn2C)cc1 -8.39%
CCc1ccccc1NC(=O)c1cc(S(=O)(=O)NCCc2ccc(OC)c(OC)c2)ccc1F -27%
CC(=O)Nc1c(C)nn(-c2ccccc2)c1N1CCC(C(=O)Nc2cc(Cl)ccc2C)CC1 21.3%
Cc1nnc(NC(=O)c2nc(S(=O)(=O)Cc3ccccc3)ncc2Cl)s1 -93.5%
CCOc1ccc(NC(=O)C(C)Sc2nnc3cc(C)c4ccccc4n23)cc1 (stereo not given) -0.245%
O=C(O)[C@@H]1CSCN1 -9.55%
C=C[C@@]1(C)CC(=O)[C@]2(O)[C@@]3(C)[C@@H](O)CCC(C)(C)[C@@H]3[C@H](O)[C@H](OC(C)=O)[C@@]2(C)O1 -5.3%
Cc1cccc(NC(=O)C(=O)NCC(c2cccnc2)N2CCOCC2)c1 (stereo not given) -3.55%
CCCOc1ccc(C2c3c(-c4ccccc4O)n[nH]c3C(=O)N2Cc2ccncc2)cc1OCC (stereo not given) -23%
Cc1cc2nc3ccc(=[N+](C)C)cc-3sc2cc1N -20.2%
COc1ccc(C)cc1NC(=O)C(=O)NCCc1csc(-c2ccc(C)cc2)n1 -3.12%
Cc1ccc(C)c(NC(=O)CCNS(=O)(=O)c2ccc3c(c2)CCCC(=O)N3)c1 -19.9%
COCCNC(=O)c1ccc2c(c1)N(Cc1cccc(Cl)c1)C(=O)c1ccccc1S2=O (stereo not given) -13.6%
CCOC(=O)c1cc(-c2ccccc2)n(CC(=O)NCc2ccccc2OC)c1C -20.7%
Fc1ccc(CNc2ncnc3c2c(-c2ccccc2)cn3-c2ccccc2)cc1 -26%
Cn1c(=O)n(C)c2cc(S(=O)(=O)Nc3ccccc3C(=O)O)ccc21 -2.77%
O=C(Nc1ccc(F)c(F)c1)C1CCCN(S(=O)(=O)c2cccc3nonc23)C1 (stereo not given) -14.9%
Cc1ccc(C)c(N2CCN(C(=O)CN3C(=O)CSc4c3c(C)nn4-c3ccccc3)CC2)c1 2.79%
Cc1c2cnn(-c3ccccc3)c(=O)c2c(C)n1CCCC(=O)Nc1ccc(F)cc1F -14.2%
CCOC(=O)c1cc(-c2ccccc2)n(CCCC(=O)Nc2ccc(CC)cc2)c1C -37.8%
NC(=O)c1cc(S(=O)(=O)NCC2CCC(C(=O)Nc3cccc(Cl)c3)CC2)cs1 (stereo not given) -11.8%
Cc1c(Cl)cccc1NC(=O)CCS(=O)(=O)c1ccc(Br)s1 -12.3%
CC(C)(C)C1CCc2onc(C(=O)Nc3sc4c(c3C(N)=O)CCCC4)c2C1 (stereo not given) 0.331%
CCCc1nnc(NC(=O)c2nc(S(=O)(=O)Cc3ccc(C)cc3)ncc2Cl)s1 -30.4%
Cc1ccc(NC(=O)CSc2nc3ccccc3c3nc(CCn4c(C)nc5ccccc54)nn23)cc1F -65.2%
CCOc1ccccc1NS(=O)(=O)c1c(-c2ccc(C)cc2)csc1C(=O)OC -32%
COc1ccc(-c2nc(SCC(=O)NCCCc3ccccc3)n[nH]2)cc1 -20.9%
COc1ccc(NC(=O)CCc2c(C)nn(-c3ccc(N4CCOCC4)nn3)c2C)cc1Cl 13.4%
Cc1ccc2occ(CC(=O)Nc3ccc(S(N)(=O)=O)cc3)c2c1 -25.4%
CCN(CC)CCCNC(=O)c1oc2c(c1C)-c1nn(Cc3ccc(Cl)cc3)cc1CC2 -18.4%
